Results from ChEMBL document CHEMBL4888484, “Replenishing the malaria drug discovery pipeline: Screening and hit evaluation of the MMV Hit Generation Library 1 (HGL1) against asexual blood stage Plasmodium falciparum ,using a nano luciferase reporter read-out” (2022).
Out of some 150,000 compounds screened, about 540 (0.36%) showed an effect of 50% or more. The list shows a part of the results.

Test system: Plasmodium falciparum
Test: Primary screen in NF54 nanoGlo assay, in single point, at 2uM, 72h; a lower Z score goes with more inhibition
Format: functional, Erythrocyte
Settings: timepoint 72 hour

SMILES | % Inhibition [%] | Z score
COC(=O)C1CCN2C(=O)N(c3cc(C)c(OC)cc3C)C(=O)C2C1 (stereo unspecified) | 5 | -0.97
CCCc1nnc(NC[C@H]2CN(C)CCO2)s1 | -10 | 1.38
O=C(Nc1ccccc1Cl)C(=O)N[C@@H]1C[C@H]2C(=O)NCC(=O)N2C1 | -13 | 1.75
O=C(O)CC[C@@H]1CN(c2nc3ccccc3s2)CC[C@@H]1N1CCOCC1 | -5 | 0.97
c1ccc(CCN2CCC(C3CCOCC3)CC2)nc1 | 2 | -0.2
Cc1nc(CCC(=O)N2CCCS2(=O)=O)oc1-c1ccccc1 | -5 | 1.03
COc1cnc(CN2CCC[C@H](Cc3nc4ccccc4[nH]3)C2)cc1O | -15 | 2.66
Cc1nc(-c2ccsc2)ccc1C(=O)N[C@@H](CC(C)C)c1nc(-c2nnc[nH]2)no1 | 32 | -3.65
CCN(C(=O)c1cnc(COc2ccccc2)nc1O)C1CCCCC1 | -8 | 1.53
CCn1nccc1C(=O)N1CCC2(CCC(=O)N(CCOC)C2)CC1 | -8 | 1.05
C[C@H]1OCC[C@H]1n1nnnc1N1CCCC2(CCCC2)C1 | -7 | 1.25
CCCC(=O)N1CCCC1C(=O)OC(C)c1nc(C)no1 (stereo unspecified) | 9 | -1.35
CCOc1cc(C(=O)Nc2cc(Cl)ccc2Cl)ccc1OCCOc1ccccc1 | -7 | 1
Cc1cnc(C(=O)N2CCc3[nH]c(-c4cccnc4)nc3C2)cn1 | 7 | -1.33
COc1cccc([C@@H](CC(=O)N2CCN(c3cccc(C(F)(F)F)c3)CC2)c2c[nH]c3ccccc23)c1 | -11 | 1.16
COc1ccc(Br)cc1CN1C(=O)CC[C@@]1(C)C(=O)NC1CCCCCC1 | 0 | -0.03
O=C1Nc2ccc(Cl)cc2C(=O)N2CCC[C@H]12 | 21 | -2.73
COc1ccc(C2(C(=O)NC[C@]3(c4ccccc4)CCCOC3)CCOCC2)cc1OC | -11 | 1.5
Cn1nc(-c2nc(C3CC3)no2)c2c1CCN(C(=O)[C@@H]1CCCO1)C2 | -6 | 1.04
CCOC(=O)c1nc2c(s1)N(Cc1cnn(C)c1C)CCCC2 | -13 | 1.38
COc1ccc([C@@H]2C[C@H](c3ccc(F)cc3)n3nnnc3N2)cc1 | -10 | 1.32
CO[C@H]1CCCN(CCN2CCN(Cc3ccccc3)CC2)C1 | -13 | 1.57
CC1OCCC1C(=O)N(C)CC(O)C(F)(F)F (stereo unspecified) | -11 | 1.64
Cc1nc(N2CCCCCCC2)ncc1[C@H](C)NCc1cnn(C)c1C | -1 | 0.26
O=C(NCCC(c1ccccc1)c1ccccc1)c1cc2n(n1)CCN(CC1CC1)C2=O | -27 | 2.35
CCc1nnc(N(C)OC)c(C#N)c1CC | 3 | -0.43
CCOC(=O)[C@@H]1CCCCCN(C(=O)OC(C)(C)C)CCC(=O)N1 | -14 | 1.84

SMILES | % Inhibition [%] | Z score
O=C(O)c1ccc(C(=O)N(CC2CCC2)CC(F)(F)F)s1 | -5 | 0.51
Cc1nccn1CC(=O)N1CCCC1C1CC(C)CCC1O (stereo unspecified) | -4 | 0.7
COc1ccc(NC(=O)[C@@H]2CCCN2Cc2nc(-c3cccs3)no2)cc1 | -12 | 1.92
CC(C)C[C@H]1CCN(c2ccnc(C(=O)NCCc3c[nH]cn3)c2)C1 | 7 | -0.93
COc1ccc(NC(=O)c2ccc3nn(CC(=O)NCc4ccc(Cl)cc4)c(=O)n3c2)cc1 | -30 | 2.63
CCCN(C(=O)N(C)C)[C@@H](C)C(=O)Nc1ccccc1 | -6 | 0.75
O=C(Nc1cnc2ccccc2n1)C1CCC(F)(F)CC1 | 1 | -0.06
Cc1ccc([C@@](C)(O)CNC(=O)Nc2ccnn2C2CCCCC2)o1 | -7 | 1.37
NC(=O)Cc1ccc(OCc2noc(C(=O)NCc3cccnc3)n2)cc1 | -13 | 2.43
O=C(c1cccc(F)c1)N1CCC(n2cc(-c3cccnc3)nn2)CC1 | -3 | 0.57
Cc1nc(C(C)(C)NCC(=O)Nc2c(C)nn(C)c2C)sc1C | -6 | 1.01
CC[C@H](C)N(Cc1cc(NC(=O)C(C)C)ccc1N(C)C)C(=O)c1cccc(C)c1 | -9 | 1.61
Cc1noc(C)c1CN1C(=O)[C@@H]2CC[C@H]1CN(C(=O)Cc1ccccc1)C2 | -11 | 1.34
Cc1cnc(NC(=O)C(F)(F)C(F)(F)F)s1 | -3 | 0.35
Cc1cnc(NC(=O)C2CN(C(=O)COc3ccccc3F)C2)s1 | -11 | 1.64
C[C@H](OC(=O)c1cc(-c2ccccc2Cl)on1)c1nc2ccccc2n1C(F)F | -4 | 0.67
COc1ccccc1N1CCN(C(=O)C2=CCN(Cc3cccc(F)c3)CC2)CC1 | -9 | 1.32
CCc1c(NC(=O)CCCOc2cccc(F)c2)nnn1CCc1ccc(OC)cc1 | 12 | -1.94
Cc1cc(CN2CCN(C(=O)c3csc(C)n3)CC2)on1 | -12 | 1.67
COc1ccccc1O[C@H]1CCCN(C(=O)c2c[nH]c(=O)n2C)C1 | 0 | 0.03
CC(C)NC(=O)N[C@H]1CCN2C(=O)c3cc(-c4ccccc4)ccc3NC(=O)[C@H]12 | 26 | -2.93
CCOCC(=O)N1C[C@H](O)[C@@H](N2CCN(c3ccccc3OC)CC2)C1 | -10 | 1.74
CCN1CCN(C2CCN(Cc3nc(-c4ccccc4)no3)CC2)CC1 | -5 | 0.65
COC(=O)[C@@H](C)NCc1cscn1 | -6 | 0.57
O=C(Nc1cccc(Cl)c1)C1=NCCCN1 | -1 | 0.11
c1ccc2c(c1)CCC(N1CC[C@H]3[C@H](C1)OCc1cnnn13)CC2 | -11 | 2.09
